A short description of this series: soluble fraction after stress (log2 fold change); higher = more stays soluble; pooled small domains, quantitative proteomics. The settings on record: stress: pH 4. An outline of the steps: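 Pooled custom libraries of small protein domains were stressed at pH 4 and then measured by high-throughput quantitative proteomics. The fold change in the amount of each domain that stays soluble after the acid stress serves as a measure of aggregation propensity. Fold changes are given on a log2 scale, and higher values mean more of the domain stayed soluble.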

On to “HMSENDYAILGVKESDSNEEIKKAFRRLAIENHPDKIEHLGETARKKAELNFSKINEAYQRIKKQRG”, for which the “soluble fraction (log2)” value was 0.131.
Regarding “HMNNLYETLGVERTASQNEIKKAYRVLARKYHPDANPDDAVAEQKFKEVAMAYEILSDDQKREEYDRFGS”, the “soluble fraction (log2)” value is 0.081.
Next, “HMALDYYGVLGVNQDATNREIKSAYRKLARELHPDVNPSEEAAEKFKDVTTAYEVLSDPEKRRIVDMGGDP”: -0.00801; “HMGGYEVQSGDTLWDLAVRFYGSGAKASAIYEANRDVIEEEAKKRGKGSSSSGYWIFPGTKLAI”: -0.412; “HMLFDTARAYTDSEVKLGEAFDGIRTEVYIATKTAAQNAEDFWKDLHTSLTNLRTDYIDLYQFH”: -0.104.
As for “HMAAVLKQGSQGDSVKTVQQKLIRWGYLKGSADGIFGAKTKAAVIAFQKKNGLTADGIIGTRTAQALGISL”, the “soluble fraction (log2)” value is -0.0885.
Next, “HMATGTVKWFNSTKGYGFIAPDDGGKDIFVHISAVERAGLTGLQDNQKIDFEMQSGRDGRASASDLKL”: -0.628; “HMSGKWALLVLFTLNKSNGTPVRFKQLERDIPDISQKMLTSVLRSLESDGLVSRKAYAEIPPRVEYSLT”: -0.252; “HMRADRLISLVLLLQTRGRMTARELADELEVTERTIYRDVIALSSAGIPLYTDRGPGGGIALLDS”: -1.24.

The record behind these values is the domain aggregation screens of Martell et al. (2025).
